Measured values as given in PubChem BioAssay (NCI).
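These data come from cells grown in 96-well plates and exposed to compound for 48 hours at five concentrations. GI50: concentration for 50% inhibition of growth. TGI denotes the concentration required for complete inhibition of growth.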

Test system: NCI-H322M lung
Assay: DTP human tumour cell line panel, 48 h

| SMILES | GI50 [µM] | TGI [µM] |
| --- | --- | --- |
| C=CCCC(=O)N1C=CC(=O)[C@H](O)[C@@H]1/C=C/c1ccccc1 | 8.71 | > 32.5 |
| Cc1ncc([N+](=O)[O-])n1CCNC(=O)CCCCCn1ccnc1[N+](=O)[O-] |  | > 100 |
| COc1cc2c(c(OC)c1OC)-c1ccc(SC)cc1C(=O)CC2 |  | > 100 |
| N#Cc1cccc(OCc2ccccc2COc2cccc(C#N)c2)c1 | 13.3 | 38.8 |
| COc1cc(/C=N\O)nc(-c2ccccn2)c1 |  | > 100 |
| COc1ccc(NC(=O)/C=C(C)/C=C/C=C(C)\C=C\C2=C(C)CCCC2(C)C)cc1 | > 100 | > 100 |
| COC(=O)Cc1nc2ccccc2o1 |  | > 100 |
| CC[C@H](NC(=O)[C@H](CS(=O)(=O)CC1CC1)N[C@@H](c1ccc(F)cc1)C(F)(F)F)C(=O)C(=O)NC1CC1 | > 100 | > 100 |
| CCOC(=O)NC(=O)c1c[nH]c(=O)[nH]c1=O |  | > 100 |
| O=[N+]([O-])c1cc(Cl)ccc1S(=O)(=O)N1CCCc2cc(Cl)ccc21 |  | > 100 |
| Cn1cc(NC(=O)c2cc(NC(=O)CCCCCCC(=O)Nc3cc(C(=O)Nc4cc(C(=O)NCCC(=N)N)n(C)c4)n(C)c3)cn2C)cc1C(=O)NCCC(=N)N |  | > 100 |
| CN1B(c2ccccc2)N(C)C(=O)N(C)C1=O |  | > 100 |
| CCCCOc1ccc(/C=N/Nc2cc(C)nc3ccc(Cl)cc23)cc1 | 1.74 | 3.13 |
| COc1ccc(-c2c(N)n[nH]c2-c2cc(OC)c(OC)c(OC)c2)cc1 |  | > 100 |
| O=C(NN=C1CCCCC1)NN=C1CCCCC1 |  | > 100 |
| C=CCN1CCC2(CC1)NC(=O)c1ccccc1O2 |  | > 100 |
| CC1CC[C@@]2(OC1)OC1C[C@H]3[C@@H]4CCC5CC(O)CC[C@]5(C)[C@H]4C/C(=N\N(C)C)[C@]3(C)C1[C@@H]2C (some centres undefined) |  | 69.3 |
| Cc1cc(O)cc2c1c(=O)c1ccccc1n2C |  | > 100 |
| Cc1ccc(NC(=O)CCC(=O)C(C#N)c2ccccc2)cc1C (centres undefined) |  | > 100 |
| C=C1c2nc3ccccc3n2C=C(c2ccc(OC)cc2)N1c1ccc(OCCN2CCOCC2)cc1 |  | > 100 |
| CC(=O)CC(=O)/C=C/c1cccs1 |  | > 100 |
| COc1ccc(C2=NOP(c3ccccc3)(c3ccccc3)(c3ccccc3)C2)cc1 |  | > 100 |
| COc1c(N2CCN(Cn3c(O)c(N=NC(=O)c4ccncc4)c4cc(F)ccc43)C(C)C2)c(F)cc2c(=O)c(C(=O)O)cn(C3CC3)c12 (centres undefined) | 44.3 | > 50 |
| C=CCC(SC)C1=C(C)C(=O)c2ccccc21 (centres undefined) |  | > 10 |
| Cc1cc(O)c(C(C)C)cc1N=Cc1ccccc1O |  | 28.3 |

| SMILES | GI50 [µM] | TGI [µM] |
| --- | --- | --- |
| C=CC1(c2ccc(OC)cc2)OCCCO1 |  | > 100 |
| Oc1ccc(Cl)cc1-c1cc(-c2ccc(F)cc2)n[nH]1 | 2.39 | 7.28 |
| N=C(N)SCCc1ccccn1 |  | > 100 |
| Brc1cccc[n+]1-c1ccc2cc(-[n+]3ccccc3Br)ccc2c1 |  | > 100 |
| CCOc1cc(C(C)(C)C)ccc1C1=N[C@@](C)(c2ccc(Cl)cc2)[C@@](C)(c2ccc(Cl)cc2)N1C(=O)N1CCN(CCS(C)(=O)=O)CC1 | 3.98 | 17.3 |
| COc1ccccc1N=C1SCCN1C(=S)Nc1ccc(S(=O)(=O)/N=C/N(C)C)cc1 |  | > 100 |
| COc1cc([C@@H]2c3cc4c(cc3C(OC3O[C@@H]5COC(C)O[C@H]5[C@H](O)[C@H]3O)C3COC(=O)[C@@H]32)OCO4)cc(OC)c1O (some centres undefined) | 19.9 | > 50 |
| C/C=C1\CC(C(=O)OCC)CCCCCCCCCCC1=O (centres undefined) |  | > 100 |
| O=c1c2c3c(sc2n2c(-c4ccc(Br)cc4)nnc2n1Cc1ccccc1)CCCC3 | 2.65 | 18.2 |
| COC[C@@H](Cc1ccc(OC)c(OC)c1)[C@@H](COC)Cc1ccc(OC)c(OC)c1 |  | > 100 |
| CN(C)CC1CCCC/C1=N/OC(=O)c1ccc(Cl)c(Cl)c1 (centres undefined) |  | > 100 |
| CC(C)(C)C(=O)OCc1nc2cc3c(cc2c(=O)[nH]1)CCC3=O | > 100 | > 100 |
| COP(C)(=O)C(Cc1c[nH]c2ccccc12)NC(=O)OCc1ccccc1 (centres undefined) |  | > 100 |
| CSC1=C(C(=O)Nc2ccccc2)C(N)=NC1=O |  | > 100 |
| NC(N)=NCC(N)C(=O)O (centres undefined) |  | > 100 |
| CC(/C=N/NC1=NCCCN1)=N\NC1=NCCCN1 |  | > 100 |
| COc1cccc(-c2cc(=O)c3cc(Cl)cnc3[nH]2)c1 |  | > 100 |
| Cc1cc(C)c(N=Nc2c(O)c(S(=O)(=O)O)cc3cc(S(=O)(=O)O)ccc23)cc1C |  | > 100 |
| O=C1c2ccccc2-c2c1c1ccccc1c(=O)n2-c1ccccc1 |  | > 100 |
| CO[C@H](C(=O)O)[C@@H]1Cc2cc3cc(OC4CC(OC5CC(O)C(O)C(C)O5)C(O)C(C)O4)c(C)c(O)c3c(O)c2C(=O)[C@H]1OC1CC(OC2CC(OC3CC(C)(O)C(O)C(C)O3)C(O)C(C)O2)C(O)C(C)O1 (some centres undefined) | 0.465 | 15.8 |
| Nc1ccc(-c2nc3ccccc3s2)cc1Br |  | > 100 |
| C[n+]1c(N)n(C(=O)OCc2ccccc2)c(=O)c2c1ncn2C(=O)OCc1ccccc1 |  | > 100 |
| C#Cc1cc2c(N)c(C(=O)c3cc(OC)c(OC)c(OC)c3)[nH]c2cc1OC | 23.9 | > 100 |
| CCOC(=S)SCN1C(=O)c2ccccc2S1(=O)=O | 25.4 | 59.3 |
| CC(=O)N1CCN(CCOc2ccc(C3CCN(C4=Nn5c(nnc5C(F)(F)F)CC4)CC3)cc2)CC1 | 35.6 | > 100 |

| SMILES | GI50 [µM] | TGI [µM] |
| --- | --- | --- |
| Cc1c(C(=O)O[C@H]2[C@@H]3[C@H](C)CC[C@H]3[C@]3(C)O[C@@]2(C2CCCCC2)C[C@H]3OC(=O)CO)ccc2ccccc12 | 7.93 | 15 |
| O=C1OC(=O)C2C1C(c1ccccc1[N+](=O)[O-])C=C(c1ccco1)N2c1ccncc1 (centres undefined) |  | 29.9 |
| CN(C)CCNc1nc2c(no[n+]2[O-])c2ccccc12 |  | 64.6 |
| COc1cc(C2c3cc4c(cc3[C@@H](Nc3ccc(N)cc3)C3COC(=O)[C@H]23)OCO4)cc(OC)c1O (some centres undefined) |  | 53 |
| CN(CCO)/N=N/c1[nH]ncc1C(N)=O |  | > 100 |
| CCCn1c(N)c(C(=O)CNc2ccc(I)cc2)c(=O)[nH]c1=O | > 100 | > 100 |
| CCCCCCCCCCCCCCCCP(=O)([O-])OCC[N+](C)(C)C |  | 37.6 |
| CN(C)CCNc1nc2ccccc2c2c(=O)c3ccccc3sc12 | 1.96 | 4.86 |
| OCC(O)C(OC1OC(CO)C(O)C(O)C1O)c1nn(-c2ccccc2)c2nc3cc(Cl)ccc3nc12 (centres undefined) |  | > 100 |
| c1ccc(C2[C@@H]3CCCc4ccccc4C3=NN2c2ccccc2)cc1 (some centres undefined) |  | > 100 |
| Cc1ccc(S(=O)OC23CC4CC(CC(C4)C2)C3)cc1 (centres undefined) |  | > 100 |
| COc1ccc2c(c1)CC[C@@H]1[C@@H]2CC[C@]2(C)C=C(/C=C/C(=O)c3ccccc3)C[C@@H]12 | 18.2 | 38.7 |
| COC(=O)C(Cc1nc2ccccc2[nH]c1=O)C(=O)C(=O)Nc1cc(C(F)(F)F)ccc1Cl (centres undefined) |  | 47.8 |
| OC1c2ccccc2C(O)C2OC12 (centres undefined) |  | > 100 |
| CCCCCCCCCCSCC(CO)NC(=O)/C=C/c1c(C)[nH]c(=O)[nH]c1=O (centres undefined) |  | > 30.2 |
| O=C1N[C@@H](COc2ccc(C=Nc3ccc(CCc4ccc(N=Cc5ccc(OC[C@@H]6COC(=O)N6)cc5)cc4)cc3)cc2)CO1 |  | > 100 |
| C[N+](C)([O-])CCCNc1ccnc2cccc([N+](=O)[O-])c12 |  | > 100 |
| CC(=O)OCC1OC(N2C(S)=C(C#N)C(c3ccco3)C(C(C)=O)=C2c2ccccc2)C(OC(C)=O)C(OC(C)=O)C1OC(C)=O (centres undefined) |  | > 100 |
| CCC1(O)CC(OC2CC(N(C)C)C(OC3CC(O)C(OC4CCC(=O)C(C)O4)C(C)O3)C(C)O2)c2c(O)c3c(c(O)c2C1C(=O)OC)C(=O)c1cccc(O)c1C3=O (centres undefined) |  | 1.73 |
| CC(=O)n1ccc2c(Cl)ncnc21 |  | > 100 |
| COc1ccc(C[C@@H]2OC3(C=CC(=O)C=C3)O[C@H]2Cc2ccc(OC)cc2)cc1 |  | 28.7 |
| C#CCCCC(=O)N(C(=O)CS(=O)CC)c1ccccc1 (centres undefined) |  | > 100 |
| CC(=O)N(CN1C(=O)CCC1C(=O)O)c1ccccc1Cl (centres undefined) |  | > 100 |
| O=[As]c1ccc(C(=O)c2ccc(Oc3ccccc3)cc2)cc1 (centres undefined) | 0.125 | 0.301 |
